In US20240124575A1 (SIMCERE ZAIMING PHARMACEUTICAL, published 2024):

T1: murine CD33-His protein (murine, UniProt Q63994 18-240, limits assumed)
T1 construct: also called murine CD33 protein
T1 sequence (looked up): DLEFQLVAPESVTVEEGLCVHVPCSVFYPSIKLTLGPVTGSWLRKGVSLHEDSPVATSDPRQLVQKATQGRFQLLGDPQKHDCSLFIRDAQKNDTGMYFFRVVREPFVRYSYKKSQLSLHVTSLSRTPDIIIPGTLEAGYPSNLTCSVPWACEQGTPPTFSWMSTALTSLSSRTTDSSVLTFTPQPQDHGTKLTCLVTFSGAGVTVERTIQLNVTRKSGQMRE

B1: S006-NB147-225 (Fc fusion)
chain: EVQVVESGGGSVQPGGSLRLSCVASGFTFSNYAMSWVRQTPKKGLEWVAEINSGGDNTYYAYFVKGRFTISRDNAKNTLYLQMNSLKPEDTGTYYCAREEENAGTILQGQGTQVTVSS[letters of human IgG1 Fc with changes left out]
notes: also called VHH-Fc
B2: S006-NB146-17 (Fc fusion)
chain: QVQLVESGGGLVQSGGSLRLSCAASGSIFTSDDMDYAMGWYRQASGKQREWVATITSDEDTNYGDSVKGRFTISRDSAKNTAFLQMNTLKPEDTAVYYCFANVRSDRSSLYRNYWGQGTQVTVSS[letters of human IgG1 Fc with changes left out]
notes: also called VHH-Fc
B3: S006-NB146-60 (Fc fusion)
chain: EVQLVESGGGLVQAGGSLRLSCVASRSTSSLSLMSWHRQAPGEQRELVASITSGGKANYVDSVKDRFIMTRDDAKNTVYLQMNSLKPEDTAVYYCHAYDRAGTASGFGAAWGQGTQVTVSS[letters of human IgG1 Fc with changes left out]
notes: also called VHH-Fc
B4: S006-NB146-60-H7 (Fc fusion)
chain: EVQLVESGGGLVQPGGSLRLSCAASRSTSSLSLMSWHRQAPGKQRELVASITSGGKANYVDSVKGRFTISRDNAKNSLYLQMNSLKPEDTAVYYCHAYDRAGTASGFGAAWGQGTMVTVSS[letters of human IgG1 Fc with changes left out]
notes: also called humanized VHH-Fc
B5: SGN-33 scFv-hIgG1Fc (Fc fusion)
chain: QVQLVQSGAEVKKPGASVKVSCKASGYTFTNYDINWVRQAPGQGLEWIGWIYPGDGSTKYNEKFKAKATLTADTSTSTAYMELRSLRSDDTAVYYCASGYEDAMDYWGQGTTVTVSSGGGGSGGGGSGGGGSDIQMTQSPSSLSASVGDRVTINCKASQDINSYLSWFQQKPGKAPKTLIYRANRLVDGVPSRFSGSGSGQDYTLTISSLQPEDFATYYCLQYDEFPLTFGGGTKVEIK[letters of human IgG1 Fc with changes left out]
notes: Control antibody in scFv-hFc format; variable regions from U.S. Pat. No. 9,453,046
B6: S006-NB146-39-aH9 (Fc fusion)
chain: EVQLVESGGGLVQPGGSLRLSCAASGIILDYYPIGWFRQAPGKEREGVAFITNSDSSTIYTNYADSVKGRFTISRDKNSLYLQMNSLRAEDTAVYYCAARSTYIVGRNENALNSADYDYWGQGTMVTVSS[letters of human IgG1 Fc with changes left out]
B7: S006-NB146-39-aH10 (Fc fusion)
chain: EVQLVESGGGLVQPGGSLRLSCTAPGIILDYYPIGWFRQAPGKEREGVAFITNSDDSTIYTNYADSVKGRFTISRDKNSLYLQMNSLRAEDTAVYYCAARSTYIVGRNENALNSADYDYWGQGTMVTVSS[letters of human IgG1 Fc with changes left out]
B8: S006-NB146-39-aH11 (Fc fusion)
chain: EVQLVESGGGLVQPGGSLRLSCTAPGIILDYYPIGWFRQAPGKEREGVAFITNSDSSTIYTNYADSVKGRFTISRDKNSLYLQMNSLRAEDTAVYYCAARSTYIVGRNENALNSADYDYWGQGTMVTVSS[letters of human IgG1 Fc with changes left out]
B9: S006-NB146-39-aH12 (Fc fusion)
chain: EVQLVESGGGLVQPGGSLRLSCAASGIILDYYPIGWFRQAPGKEREGVAFITNSDDSTIYTNYADSVKGRFTISREKNTLYLQMNSLRAEDTAVYYCAARSTYIVGRNENALNSADYDYWGQGTMVTVSS[letters of human IgG1 Fc with changes left out]
B10: S006-NB146-39-aH13 (Fc fusion)
chain: EVQLVESGGGLVQPGGSLRLSCAASGIILDYYPIGWFRQAPGKEREGVAFITNSDSSTIYTNYADSVKGRFTISREKNTLYLQMNSLRAEDTAVYYCAARSTYIVGRNENALNSADYDYWGQGTMVTVSS[letters of human IgG1 Fc with changes left out]
B11: S006-NB146-39-aH15 (Fc fusion)
chain: EVQLVESGGGLVQPGGSLRLSCAASGIILDYYPIGWFRQAPGKGREGVAFITNSDDSTIYTNYADSVKGRFTISRDKNSLYLQMNSLRAEDTAVYYCAARSTYIVGRNENALNSADYDYWGQGTMVTVSS[letters of human IgG1 Fc with changes left out]
B12: S006-NB146-173-H6 (Fc fusion)
chain: EVQLVESGGGLVQPGGSLRLSCAASGSTLSLHSMGWYRQAPGKQRELVAGISRDGDSNYLSSLAGRFTISRDGTKNSVYLQMNSLRAEDTAVYYCNARTSPWSAALWGQGTMVTVSS[letters of human IgG1 Fc with changes left out]
B13: S006-NB146-132-aH2 (Fc fusion)
chain: EVQLVESGGGLVQPGGSLRLSCAASGGTFVINAAWYRQAPGKQRELVASISYGGSTNYADRVAGRFTISRDNAKNSLYLQMNSLRAEDTAVYYCRLDPGLALNNRPLYYWGQGTMVTVSS[letters of human IgG1 Fc with changes left out]
B14: S006-NB146-132-aH1 (Fc fusion)
chain: EVQLVESGGGLVQPGGSLRLSCAASGFTFSINAAWYRQAPGKQRELVASISYGGSTNYADRVAGRFTISRDNAKNSLYLQMNSLRAEDTAVYYCRLDPGLALNNRPLYYWGQGTMVTVSS[letters of human IgG1 Fc with changes left out]
B15: S006-NB146-132-aH3 (Fc fusion)
chain: QVQLVESGGGLVQPGGSLRLSCAASGGTFVINAAWYRQAPGKQRELVASISYGGSTNYADRVAGRFTISRDNAKNSLYLQMNSLRAEDTAVYYCRLDPGLALNNRPLYYWGQGTMVTVSS[letters of human IgG1 Fc with changes left out]
B16: S006-NB146-132-aH5 (Fc fusion)
chain: EVQLVESGGGLVQPGGSLRLSCAASGGTFVINAAWYRQAPGKQRELVASISYGGSTNYADRVAGRFTISRDNAKNSVYLQMNSLRAEDTAVYYCRLDPGLALNNRPLYYWGQGTMVTVSS[letters of human IgG1 Fc with changes left out]
B17: S006-NB146-1 (Fc fusion)
chain: EVQVVESGGGLVQAGGSLTLSCAASGNIENIQVMGWYRQAPGSQRALVAQINLSGLESTNYLDSVKERFTISRDYTKNAVYLRMNRLEPEDTAVYYCNARSYYGQYDYWGQGTQVTVSS[letters of human IgG1 Fc with changes left out]
notes: also called VHH-Fc
B18: S006-NB146-132 (Fc fusion)
chain: QVQLVESGGGLVQAGGSLRLSCAASGGTFVINAAWYHQAPGKQRELVANISYGGSTNYADRVAGRFAISRDNAKNTVYLQMNSLKPEDTGVYYCRLDPGLALNNRPLYYWGQGTQVTVSS[letters of human IgG1 Fc with changes left out]
notes: also called VHH-Fc

How the values were obtained:
murine CD33-His protein [1] = biological target: T1, murine CD33-His protein; experiment: ELISA, antigen coated
murine CD33-His protein [2] = biological target: T1, murine CD33-His protein; experiment: ELISA on coated murine CD33-his
human CD33-His = biological target: T2, human CD33-His (human, UniProt P20138 18-259); experiment: SPR (Biacore), antibody captured on Protein A chip, human CD33-his as analyte
T2 construct: range 18-259; Bought protein; also called human CD33-his protein; hCD33-his; not shown: His tag

human CD33-his protein = biological target: T3, human CD33-his protein (human, UniProt P20138 18-259); experiment: SPR (Biacore), antibody captured on Protein A chip, human CD33-his analyte
T3 construct: range 18-259; bought protein; also called hCD33-his; recombinant human CD33-his; not shown: His tag

monkey CD33-his protein = biological target: T4, monkey CD33-his protein (monkey); experiment: SPR (Biacore), antibody captured on Protein A chip, monkey CD33 analyte
T4 construct: bought protein; also called monkey CD33 protein (Sino Biological, Cat. No. 50712-M08H)

Binder | Kd (human CD33-his protein) [nM] | koff (human CD33-his protein) [s⁻¹] | kon (human CD33-his protein) [M⁻¹ s⁻¹] | Kd (monkey CD33-his protein) [nM] | koff (monkey CD33-his protein) [s⁻¹] | kon (monkey CD33-his protein) [M⁻¹ s⁻¹] | other results
B1 | – | – | – | – | – | – | OD450 at 0.0001 nM (murine CD33-His protein [1]): 0.06 OD450; OD450 at 0.001 nM (murine CD33-His protein [1]): 0.06 OD450; OD450 at 0.01 nM (murine CD33-His protein [1]): 0.11 OD450; OD450 at 0.1 nM (murine CD33-His protein [1]): 0.05 OD450; OD450 at 1 nM (murine CD33-His protein [1]): 0.06 OD450; OD450 at 10 nM (murine CD33-His protein [1]): 0.06 OD450; OD450 at 100 nM (murine CD33-His protein [1]): 0.06 OD450
B2 | – | – | – | – | – | – | OD450 at 0.0001 nM (murine CD33-His protein [1]): 0.06 OD450; OD450 at 0.001 nM (murine CD33-His protein [1]): 0.06 OD450; OD450 at 0.01 nM (murine CD33-His protein [1]): 0.06 OD450; OD450 at 0.1 nM (murine CD33-His protein [1]): 0.07 OD450; OD450 at 1 nM (murine CD33-His protein [1]): 0.06 OD450; OD450 at 10 nM (murine CD33-His protein [1]): 0.06 OD450; OD450 at 100 nM (murine CD33-His protein [1]): 0.07 OD450
B3 | – | – | – | – | – | – | OD450 at 0.0001 nM (murine CD33-His protein [1]): 0.06 OD450; OD450 at 0.001 nM (murine CD33-His protein [1]): 0.07 OD450; OD450 at 0.01 nM (murine CD33-His protein [1]): 0.06 OD450; OD450 at 0.1 nM (murine CD33-His protein [1]): 0.06 OD450; OD450 at 1 nM (murine CD33-His protein [1]): 0.06 OD450; OD450 at 10 nM (murine CD33-His protein [1]): 0.07 OD450; OD450 at 100 nM (murine CD33-His protein [1]): 0.07 OD450
B4 | – | – | – | – | – | – | binding result (murine CD33-His protein [2]): no binding (tested: 100 nM)
B5 | – | – | – | – | – | – | Kd (human CD33-His): 7.93 nM; koff (human CD33-His): 0.00557 s⁻¹; kon (human CD33-His): 702000 M⁻¹ s⁻¹
B6 | 5.25 | 0.00134 | 255000 | 42.6 | 0.0185 | 434000 | –
B7 | 0.395 | 7.85e-05 | 199000 | 2.27 | 0.000829 | 365000 | –
B8 | 0.538 | 0.000151 | 280000 | 2.72 | 0.00145 | 534000 | –
B9 | 7.21 | 0.0015 | 208000 | 70.2 | 0.0265 | 377000 | –
B10 | 8.43 | 0.00195 | 231000 | 61.4 | 0.0235 | 383000 | –
B11 | 5.77 | 0.00091 | 158000 | 55.7 | 0.0171 | 308000 | –
B12 | 7.6 | 0.00163 | 214000 | 16.1 | 0.0052 | 323000 | –
B13 | 0.521 | 0.00028 | 537000 | – | – | – | –
B14 | 4.5 | 0.00142 | 317000 | – | – | – | –
B15 | 0.617 | 0.000294 | 477000 | – | – | – | –
B16 | 0.341 | 0.000234 | 688000 | – | – | – | –
B17 | – | – | – | – | – | – | OD450 at 0.0001 nM (murine CD33-His protein [1]): 0.07 OD450; OD450 at 0.001 nM (murine CD33-His protein [1]): 0.07 OD450; OD450 at 0.01 nM (murine CD33-His protein [1]): 0.07 OD450; OD450 at 0.1 nM (murine CD33-His protein [1]): 0.06 OD450; OD450 at 1 nM (murine CD33-His protein [1]): 0.06 OD450; OD450 at 10 nM (murine CD33-His protein [1]): 0.06 OD450; OD450 at 100 nM (murine CD33-His protein [1]): 0.08 OD450
B18 | – | – | – | – | – | – | OD450 at 0.0001 nM (murine CD33-His protein [1]): 0.06 OD450; OD450 at 0.001 nM (murine CD33-His protein [1]): 0.06 OD450; OD450 at 0.01 nM (murine CD33-His protein [1]): 0.06 OD450; OD450 at 0.1 nM (murine CD33-His protein [1]): 0.14 OD450; OD450 at 1 nM (murine CD33-His protein [1]): 0.17 OD450; OD450 at 10 nM (murine CD33-His protein [1]): 0.49 OD450; OD450 at 100 nM (murine CD33-His protein [1]): 0.84 OD450
